Laboratory results: the supplement of paper PMC3334620
Over roughly 33,000 sequences, “E-score (-0.5 to 0.5)” has its median near -0.035; the highest 2% begin near 0.35. This is one part of the list.

target: T1, Pdr3 (UniProt P33200); assay: PBM E-score (8-mer binding enrichment) (E-score (-0.5 to 0.5)); higher = stronger / more preferred TF binding; most listed sequences are background and not binding sites; conditions: protein concentration: 200 nM; construct: GST-full length
T1 sequence: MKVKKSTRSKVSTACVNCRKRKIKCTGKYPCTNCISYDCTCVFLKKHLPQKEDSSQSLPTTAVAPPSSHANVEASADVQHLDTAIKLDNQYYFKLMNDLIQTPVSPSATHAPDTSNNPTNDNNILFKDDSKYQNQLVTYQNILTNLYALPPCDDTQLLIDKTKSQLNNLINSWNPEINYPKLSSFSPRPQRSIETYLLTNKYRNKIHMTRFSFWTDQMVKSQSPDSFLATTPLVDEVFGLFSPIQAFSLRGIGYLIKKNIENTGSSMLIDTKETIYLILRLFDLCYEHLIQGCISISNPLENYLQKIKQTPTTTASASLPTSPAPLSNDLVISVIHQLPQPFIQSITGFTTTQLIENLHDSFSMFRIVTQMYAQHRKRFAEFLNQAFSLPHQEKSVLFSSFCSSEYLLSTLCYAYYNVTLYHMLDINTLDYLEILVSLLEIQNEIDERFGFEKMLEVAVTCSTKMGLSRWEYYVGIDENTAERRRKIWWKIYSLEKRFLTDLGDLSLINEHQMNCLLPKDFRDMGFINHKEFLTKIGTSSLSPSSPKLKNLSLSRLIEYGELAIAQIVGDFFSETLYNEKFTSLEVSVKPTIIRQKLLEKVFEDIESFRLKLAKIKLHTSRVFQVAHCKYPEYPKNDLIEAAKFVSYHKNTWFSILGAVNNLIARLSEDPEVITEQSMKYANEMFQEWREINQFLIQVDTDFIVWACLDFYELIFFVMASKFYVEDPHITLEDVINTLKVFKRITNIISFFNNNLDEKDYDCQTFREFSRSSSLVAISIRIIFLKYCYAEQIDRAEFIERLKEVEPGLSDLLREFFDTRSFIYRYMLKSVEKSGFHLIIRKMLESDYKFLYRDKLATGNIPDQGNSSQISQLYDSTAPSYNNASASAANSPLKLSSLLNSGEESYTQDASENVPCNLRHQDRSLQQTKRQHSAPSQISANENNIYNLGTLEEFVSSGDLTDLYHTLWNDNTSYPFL
Summary of the method: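 GST-tagged yeast TFs (full-length or DNA-binding domain) were made by PURExpress in vitro transcription/translation and applied at about 100-200 nM to universal all-10-mer Agilent arrays. The arrays were made double-stranded by primer extension, on fresh or once-stripped slides. Bound protein was detected with fluorescent anti-GST, and scans were normalised with masliner. Each ungapped eight-base word, pooled with its reverse complement, received an E-score (modified Wilcoxon-Mann-Whitney statistic) from the Universal PBM Analysis Suite.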

Sequence	PBM E-score
CGAACCGA	0.15
AGTGGCGG	0.11
TCGTGCCA	-0.066
GTAACGAC	-0.0257
TACCAAAA	-0.166
CATTCTTC	0.0866
CACTAGCA	-0.276
AGATACGA	0.0424
ATGGGCTG	-0.118
AATCACCA	0.0775
ACAGGCCC	-0.19
AACTAAAT	-0.111
CCACTTTC	-0.127
CGGGATCC	0.417
CCGTGAAA	0.223
CTTTACTA	0.177
AACTTGCA	-0.0273
GCCCCTGA	-0.0645
ACGGTTTG	0.05
GTGAGCCA	-0.229
ATAAATAA	0.151
CAATGGAA	0.173

Sequence	PBM E-score
CCTCTTCA	-0.271
ATAAGTAA	-0.0984
CTCTTAGA	-0.104
TCGTCACA	-0.00184
AGAAAAAC	-0.0952
CCGGTCCC	0.312
ATTACGAG	0.0348
AATTAGCC	-0.031
AGATTATG	0.0343
AGCGTGGG	-0.253
ACATCATA	0.015
CCATCCCC	0.123
CACATGCG	-0.016
ACATACCG	0.0282
AGCATCAT	-0.0546
TACGATAA	-0.16
CAAATTTC	-0.136
AACTCGCT	0.0814
AGCTCGCA	-0.0591
GACCACTC	0.0932
GTACCTCA	-0.112
CTAGGCAC	-0.221

Sequence	PBM E-score
AAAGGAAG	-0.0796
GCCTGATA	-0.199
CTCGCGAA	-0.0599
TACTCAGA	-0.0418
ATTAGAGC	-0.0155
ACATCGAT	0.0403
ACTAAGGA	-0.0238
CTGACTGC	-0.186
GTGGAGGA	0.016
GACACGCC	0.0793
AGCTGGTA	-0.0594
CTCAGTCA	-0.218
GGAAATTA	0.219
GAGAGCCC	-0.223
ACAGTCTG	-0.131
GAGCCAGA	0.002
TCGCCCGA	0.0174
CGGATAGC	0.251
CCGTCAAA	0.0872
GATTTGAA	-0.03
CTAAGACA	-0.125
GACAAATC	-0.0649

Sequence	PBM E-score
GAAAAAAA	0.168
CCGGTTTC	0.235
AGGCCCTG	-0.124
TCTGCTCA	-0.282
CAAAAGGG	-0.144
GAAAAGAC	0.123
CGCCTTAC	-0.22
ATAGATAC	-0.0777
GTACACGA	-0.0206
CCGTATGA	0.23
TTACTGAA	-0.0355
AGCAGTCC	0.0198
CGCGCTGA	0.104
GACATTCA	0.0508
GGAAGTAA	0.234
CGCTGGAA	0.171
GGTAATTA	0.115
GACATGAC	-0.217
CCGAATTC	0.315
AAGCTCTA	-0.243
